In PubChem BioAssay AID1745853 (National Center for Advancing Translational Sciences (NCATS), 2022):
The other results are listed elsewhere or left out. Further columns of the screen follow, without active or inactive calls.

How the values were obtained:
Test in all cases: Primary Screen for Target Class Profiling of Small Molecule Inhibitors of Methyltransferases
[1] = biological target: Glycine N-methyltransferase (Homo sapiens) (UniProt Q14749); conditions: purified enzyme, MTase-Glo SAH luminescence; measured here: GNMT inhibition; at 40 µM; stronger effect = lower value
Procedure, shortened: (§1)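 Each enzyme was assayed with SAM and its substrate. SAH formation detected by MTase-Glo luminescence; single-point 40 uM screen[…].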

[2] = biological target: Guanidinoacetate N-methyltransferase (Homo sapiens) (UniProt Q14353); conditions: purified enzyme, MTase-Glo SAH luminescence; measured here: GAMT inhibition; at 40 µM; stronger effect = lower value
Procedure, shortened: as §1

[3] = biological target: Histamine N-methyltransferase (Homo sapiens) (UniProt P50135); conditions: purified enzyme, MTase-Glo SAH luminescence; measured here: HNMT inhibition; at 40 µM; stronger effect = lower value
Procedure, shortened: as §1

[4] = biological target: Nicotinamide N-methyltransferase (Homo sapiens) (UniProt P40261); conditions: purified enzyme, MTase-Glo SAH luminescence; measured here: NNMT inhibition; at 40 µM; stronger effect = lower value
Procedure, shortened: as §1

[5] = biological target: Phenylethanolamine N-methyltransferase (Homo sapiens) (UniProt P11086); conditions: purified enzyme, MTase-Glo SAH luminescence; measured here: PNMT inhibition; at 40 µM; stronger effect = lower value
Procedure, shortened: as §1
On the % scale 0 is the no-effect control and ±100 the full control effect.

Compound	activity change, negative = inhibition [1]	activity change, negative = inhibition [2]	activity change, negative = inhibition [3]	activity change, negative = inhibition [4]	activity change, negative = inhibition [5]
O=C(CCNNC(=O)c1ccncc1)NCc1ccccc1	-2.97%	5.07%	2.18%	-5.1%	4.97%
CCOC(=O)C1CCN(c2nc3c(S(=O)(=O)c4ccccc4)nnn3c3ccccc23)CC1	-6.07%	4.46%	-2.92%	-4.77%	-2.56%
CC(C)=CCc1cc(O[C@@H]2O[C@H](CO[C@@H]3OC[C@](O)(CO)[C@H]3O)[C@@H](O)[C@H](O)[C@H]2O)ccc1O	4.62%	2.85%	9.11%	-9.7%	-1.46%
Cc1nc2c(c(C)c1CCC(=O)N1CCN(c3ccccc3)CC1)c(=O)n(C)c(=O)n2C	–	-9.44%	–	-11.7%	0.478%
Fc1ccccc1CNCc1ccc(-c2ccnc3[nH]ccc23)cc1	-0.904%	-0.075%	-25.2%	-36.1%	-17.3%
Cc1cccc(CCNC(=O)CCc2nnc3n(Cc4ccccc4)c(=O)c4ccccc4n23)c1	-10.2%	5.09%	-1.85%	-16%	-0.88%
Cc1cnc(-c2ccccc2C(C)C)nc1NCc1ccc(-n2ccnn2)cc1	-4.22%	-11.6%	0.311%	-27.5%	-7.66%
O=C(NCC1CCN(c2cc(-c3ccc(Cl)cc3)[nH]n2)CC1)c1ccc(=O)[nH]c1	-15.2%	-13.5%	-9.44%	-22.5%	-19.5%
CC1CCC2C(C)(C)[C@H](O)CC[C@]2(C)C12Cc1c(O)cc3c(c1O2)CN(C(CCC(=O)O)C(=O)O)C3=O (stereo partly drawn)	0%	1.77%	-3.2%	-9.94%	1.54%
CCCn1c(=O)c2[nH]c(C3CCCC3)nc2n(CCC)c1=O	-6.18%	0.431%	-3.48%	-13.1%	-3.71%
Cc1ccc(C)c(N2C(=O)c3cc4sccc4n3CC2(C)C(=O)NC2CCC(C)CC2)c1 (stereo not drawn)	2.7%	0%	3%	2%	-2.52%
COc1ccccc1NC(=O)CSc1nnc2n(CC(C)C)c(=O)c3cc(F)ccc3n12	-2.37%	3.93%	6.76%	-9.44%	-0.642%
COC(=O)c1cc2n(n1)CC(C)(C(=O)NC1CCCC1)N(c1ccc(OC)cc1)C2=O (stereo not drawn)	1.44%	2.93%	9.91%	2.67%	2.31%
CCOC(=O)c1cc2n(n1)CC(C)(C(=O)NCCC(C)C)N(c1ccc(C)cc1C)C2=O (stereo not drawn)	3.11%	2.12%	4.95%	12.4%	1.78%
CC(C)OCCCn1c(=O)c2ccccc2n2c(CCC(=O)N3CCN(c4ccccc4F)CC3)nnc12	-10.4%	2.61%	-1.42%	-14.2%	-2.31%
CN1C(=O)c2cc(C(=O)NC3CCN(Cc4ccccc4)CC3)nn2CC1(C)C(=O)NCc1ccc(F)cc1 (stereo not drawn)	3.8%	1.44%	-6.29%	3.96%	-1.05%
CCc1ccc(N2C(=O)c3cc4sccc4n3CC2(C)C(=O)NC2CCCC(C)C2C)cc1 (stereo not drawn)	-4.36%	0%	3.17%	4.13%	0.39%
Nc1ccc(-c2ccc3ncc4ccc(=O)n(-c5cccc(C(F)(F)F)c5)c4c3c2)cn1	-31.5%	-7.65%	-14.6%	-67.4%	-11.2%
CCCCn1c(=O)n(Cc2ccccc2F)c(=O)c2[nH]c(Cc3ccc(NC(C)=O)cc3)nc21	2.92%	7.84%	5.91%	-40%	-1.4%

Compound	activity change, negative = inhibition [1]	activity change, negative = inhibition [2]	activity change, negative = inhibition [3]	activity change, negative = inhibition [4]	activity change, negative = inhibition [5]
Oc1cccc(C2NC(=S)Nc3cccc(F)c32)c1 (stereo not drawn)	-6.78%	13%	-0.064%	-13.8%	-15.3%
CC(C)Cn1c(=O)c2ccccc2n2c(SCC(=O)N3CCN(c4ccccc4F)CC3)nnc12	-1.72%	4.28%	3%	1.69%	1.33%
COc1cccc(CSc2nnc3n(CCC(C)C)c(=O)c4ccccc4n23)c1	-5.18%	0%	1.41%	-12.1%	3.53%
CCC(=O)c1ccc2c(c1)N(CCCN(C)C)c1ccccc1S2	-0.103%	8.22%	-5.71%	-32.9%	-1.21%
O=C(CCc1nnc2n(Cc3ccc(Cl)cc3)c(=O)c3ccccc3n12)N1CCC(Cc2ccccc2)CC1	-5.27%	1.43%	4.17%	5.75%	-0.035%
O=c1cc(-c2cccnc2)oc2c(NCc3ccc(F)cc3)nccc12	-16.5%	-8.04%	-5.86%	-26.2%	-27%
COc1c2cc(c(O[C@@H]3O[C@H](CO)[C@@H](O)[C@H](O)[C@H]3O)c1OC)CCCCC(O)CCc1ccc(O)c-2c1 (stereo partly drawn)	-36.4%	-17.9%	-22.6%	-29.2%	-8.16%
CC1CCC(NC(=O)CCn2ccc3cc(S(=O)(=O)N4CCCCC4)ccc32)CC1 (stereo not drawn)	5.34%	2.48%	6.9%	4.09%	3.19%
CC(C)CCn1c(=O)c2ccc(C(=O)NC(C)C)cc2n2c(=O)n(Cc3ccccc3Cl)nc12	5.07%	0%	5.44%	3.67%	1.48%
Cc1nc2ccccn2c(=O)c1CCN1CCC(C(=O)c2ccc(F)cc2)CC1	3.73%	11%	5.31%	-3.04%	7.58%
CC(C)(C)c1cc(Br)cc([C@H](CC(=O)O)NC(=O)CNC(=O)c2cc(O)cc(NC3=NCC(O)CN3)c2)c1 (stereo partly drawn)	2.06%	-4.09%	-9.3%	-17.3%	-8.51%
O=C1NC2(Cc3ccccc31)CN(C(=O)c1ccccc1Cl)C2	-8.66%	-8.94%	-3.59%	-18.5%	-26.8%
O=C(CCc1nnc2n(Cc3ccc(F)cc3)c(=O)c3ccccc3n12)N1CCOCC1	-8.82%	4.21%	0.78%	2.34%	-2.09%
COc1ccccc1CNC(=O)c1cc2n(n1)CC(C)(C(=O)NC1CCCC1)N(C)C2=O (stereo not drawn)	5.25%	0%	1.2%	3.11%	1.23%
CCCc1nnc([C@H]2CCN(C(=O)c3ccccc3)C2)o1	-7.37%	-13%	-3.97%	-19.3%	-15.9%
CCOC(=O)c1cc2n(n1)CC(C)(C(=O)NCc1ccc(F)cc1)N(c1ccc(F)cc1)C2=O (stereo not drawn)	1.15%	1.44%	3.62%	0.575%	-2.42%
O=c1n(CCCN2CCN(c3cccc(Cl)c3)CC2)nc2ccccn12	2.89%	14.1%	4.76%	-4.72%	11.2%
Cc1ccc(S(=O)(=O)c2nnn3c2nc(NC(C)C)c2ccccc23)cc1	-4.53%	4.61%	2.52%	0.459%	-7.53%
COCCN1C(=O)c2cc(-c3ccccc3)nn2CC1(C)C(=O)NCc1ccccc1OC (stereo not drawn)	3.79%	1.01%	4.49%	7.65%	-0.788%
